Experimental data published in PubChem BioAssay AID624417 (National Center for Advancing Translational Sciences (NCATS), 2012).
Where “and” joins values, the source holds several entries; their conditions need not be identical. Equal entries are not always repeated. The whole screen tested about 410,000 compounds, of which about 6,400 (1.6%) were called active. Inconclusive means that the source gave no clear call. Such entries were picked first, then a sample of the others. Calls follow the shape of the dose curve; as a rule, active = well fitted inhibition curve with a large enough effect; inconclusive = small, poorly fitted or top-dose-only effect; inactive = no such curve, though single readings can be large or run the other way. Potencies of inconclusive entries are doubtful fits and often do not repeat.

target: Glucagon-like peptide 1 receptor (Homo sapiens) (UniProt P43220); test: qHTS of GLP-1 Receptor Inverse Agonists (Inhibition Mode); details: HEK293 GLP-1R CRE-luciferase, luminescence, 24 h, GLP-1R form is constitutively active; activity change, negative = inhibition: at 38.3 µM (top of the series) unless noted; also: nearly all actives have a fitted effect of over 55% in size
Outline: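 Stable HEK293 clone (constitutively active GLP-1R + cAMP-response luciferase); 200 cells/uL plated, 12 h pre-culture, compound 24 hr, 37 deg C/5% CO2; detection reagent 12 min RT; luminescence.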
% is scaled to controls: 0 for no effect and ±100 for the full control effect; potency is read from the fitted curve at half-maximal effect; tags tell the direction and shape of the fitted curve.

UniProt P43220, sequence (P43220 whole entry, looked up): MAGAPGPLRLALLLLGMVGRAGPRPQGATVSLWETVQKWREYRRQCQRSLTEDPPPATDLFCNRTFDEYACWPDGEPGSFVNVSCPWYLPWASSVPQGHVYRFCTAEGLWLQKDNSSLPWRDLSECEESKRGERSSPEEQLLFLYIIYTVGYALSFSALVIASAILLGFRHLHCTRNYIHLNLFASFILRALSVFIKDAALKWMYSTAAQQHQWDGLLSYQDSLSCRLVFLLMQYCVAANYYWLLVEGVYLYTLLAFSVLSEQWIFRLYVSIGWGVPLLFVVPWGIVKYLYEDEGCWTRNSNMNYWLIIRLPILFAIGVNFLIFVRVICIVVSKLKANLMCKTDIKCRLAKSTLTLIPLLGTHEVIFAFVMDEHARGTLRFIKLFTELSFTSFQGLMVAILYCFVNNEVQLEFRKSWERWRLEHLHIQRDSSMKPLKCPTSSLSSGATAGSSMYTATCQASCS

Potency, inconclusive:
Cc1noc(C)c1CSCC(=O)Nc1cc(S(=O)(=O)N2CCCCC2)ccc1OC(C)C 31.6 µM [inhibitor, single point]
COc1ccc(-n2c(CN3CCN(c4ccccc4)CC3)nc3ccc([N+](=O)[O-])cc3c2=O)c(OC)c1 10 µM [inhibitor, partial curve, poor fit]
COc1ccccc1NS(=O)(=O)c1cc(NC(=S)Nc2cc(C)cc(C)c2)ccc1Cl 22.4 µM [inhibitor, single point]
CN1C2CCC1CC(NC(=O)c1ccc([N+](=O)[O-])cc1)C2 (stereo not drawn) 31.6 µM [inhibitor, single point]
c1ccc(COc2ccc(CNCc3cccnc3)cc2)cc1 28.2 µM [inhibitor, single point]
CCCCNC(=O)CCn1nc(-c2ccc(Cl)cc2)c2ccccc2c1=O 10 µM [inhibitor, single point] and 12.6 µM [inhibitor, single point]
CCO[C@H]1OC(C(=O)N2CCN(Cc3ccc4c(c3)OCO4)CC2)=C[C@@H](c2cn(C(C)=O)c3ccccc23)[C@@H]1CCCO 28.2 µM [inhibitor, single point]
CCCc1cc(=O)oc2cc(OCC(=O)NCCCn3ccnc3)ccc12 8.91 µM [inhibitor, partial curve, poor fit]
NS(=O)(=O)c1ccc(NC(=S)Nc2nn(Cc3ccc(Cl)cc3Cl)cc2Cl)cc1 11.2 µM [inhibitor, partial curve, poor fit]
CCN(CC)S(=O)(=O)c1ccc(Cc2ncc(C(F)(F)F)cc2Cl)s1 8.91 µM [inhibitor, partial curve, poor fit]
Cc1ccc(C2CCN(C(=S)NC(C)(C)C)C2)cc1 (stereo not drawn) 11.2 µM [inhibitor, partial curve, poor fit]
CCO[C@H]1OC(C(=O)Nc2ccccc2)=C[C@@H](c2csc3ccccc23)[C@@H]1CCCO 11.2 µM [inhibitor, single point]
N#Cc1ccccc1COC(=O)c1cccc(S(=O)(=O)N2CCCC2)c1 11.2 µM [inhibitor, single point]
Cn1nc([N+](=O)[O-])nc1Sc1cccc2cccnc12 14.1 µM [inhibitor, single point]
CN(C)CCNCc1ccccc1OC1CCCC1 12.6 µM [inhibitor, single point]
CCCCC(=O)Nc1ccc(C)c(S(=O)(=O)N2CCCCCC2)c1 0.447 µM [inhibitor, full curve, poor fit]
Cc1c(C(=O)NC(=S)Nc2ccccc2N2CCCC2)cccc1[N+](=O)[O-] 3.16 µM [inhibitor, partial curve, poor fit]
COc1ccc(CNC(NC(=O)c2ccccc2)(C(F)(F)F)C(F)(F)F)cc1 11.2 µM [inhibitor, partial curve, poor fit]
C/C=C(\C)C(=O)OC1[C@H](OC(C)=O)C2(CO)C(CC1(C)C)C1=CCC3C4(C)CCC(O[C@@H]5O[C@H](C(=O)O)[C@@H](O[C@@H]6O[C@H](CO)[C@@H](O)[C@H](O)[C@H]6O)[C@H](O)[C@H]5O[C@H]5O[C@H](CO)[C@@H](O)[C@H](O)[C@H]5O)[C@](C)(CO)C4CCC3(C)[C@]1(C)C[C@H]2O (stereo partly drawn) 11.2 µM [inhibitor, partial curve, poor fit]
COC(=O)c1cnc(Oc2ccc(NC(=O)NC(=O)c3c(OC)cccc3OC)cc2)cc1C(F)(F)F 0.501 µM [inhibitor, full curve, poor fit]
O=C(COc1cccc(F)c1)N[C@@H](Cc1ccccc1)c1nc2ccccc2[nH]1 12.6 µM [inhibitor, single point]
O=S(=O)(Cc1ccco1)Cc1nc(-c2ccc(Cl)cc2)cs1 31.6 µM [inhibitor, single point]
CC1Sc2ccc(S(=O)(=O)CCC(=O)N3CCN(c4ccccc4F)CC3)cc2NC1=O (stereo not drawn) 14.1 µM [inhibitor, single point]
CCC(Oc1ccccc1)C(=O)Nc1cc(-c2ccccc2F)nn1-c1ccccc1 (stereo not drawn) 6.31 µM [inhibitor, partial curve, poor fit]
O=C(c1cccc(F)c1)N1CCN(c2cccc(C(F)(F)F)c2)CC1 28.2 µM [inhibitor, single point]
Cc1ccc(/C(O)=C/C(=O)C(=O)NC23CC4CC(CC(C4)C2)C3)cc1 10 µM [inhibitor, single point]

Potency, active:
Fc1ccc(C(c2nnnn2Cc2cccs2)N2CCN(c3ccccc3)CC2)cc1 (stereo not drawn) 7.94 µM

Activity change, negative = inhibition, inactive:
Cn1c(=O)[nH]c(=O)c2c1nc(CN1CCN(c3ccccc3)CC1)n2Cc1c(F)cccc1Cl 5.69%
Cc1ccc(C)c(N(C)S(=O)(=O)c2ccc3[nH]cc(C(=O)NCCN4CCOCC4)c(=O)c3c2)c1 10.3%
COc1cc(NC(=O)C(CC(C)C)N2Cc3ccccc3C2=O)cc(OC)c1 (stereo not drawn) -18.3%
CCN(CC)C(=O)c1ccc2c(c1)N(Cc1ccccc1F)C(=O)c1ccccc1S2=O (stereo not drawn) 12.9%
S=c1[nH]nc(-c2cc(-c3ccccc3)n[nH]2)n1/N=C/c1ccc(Br)s1 185%
C[C@H]1c2cccc(O)c2C(O)=C2C(=O)[C@]3(O)C(O)=C(C(N)=O)C(=O)[C@@H](N(C)C)C3[C@@H](O)C21 (stereo partly drawn) -2.53%
COc1ccc(-c2noc(CCCC(=O)NCc3ccco3)n2)cc1OC 12.8%
CC1=C(C#N)C(NC(=O)c2ccco2)(C(F)(F)F)C(=O)N1 (stereo not drawn) 0%
CCc1ccc2oc(-c3cccc(NC(=O)COc4ccccc4Cl)c3)nc2c1 20%
O=C1NC2=C(CCc3ccccc32)C(c2ccccc2)N1 (stereo not drawn) 0.546%
O=c1[nH]c2sc3c(c2c(=O)n1Cc1ccccc1)CCC3 9.51%
